In the supplement of paper PMC10126150:
Values marked as one replicate rest on one cluster of the flow cell; about a third of the high ones do not repeat.

System: ATP
Assay: switch fluorescence ratio, 500 uM ATP over buffer (Cy3 cluster intensity, sum of 5 cycles each) (fold (ratio)); higher = stronger signal-on switching upon ATP binding; sequences stand for … in TCGTCGGCAGCGTCAGATGTGTATAAGAGACAGTTTTTTTTTTTTTTTTTTTTTTTTT…TC
Conditions: aptamer strand: ATP DNA aptamer (quencher-CACCTGGGGGAGTATTGCGGAGGAAGG + anchor), 100 nM annealed; ATP concentration: 500 uM; one replicate
Procedure, shortened: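 Per cluster, summed Cy3 intensity from the target cycles was divided by that from the buffer cycles to give the fluorescence ratio, then averaged per switch-domain sequence. Clusters outside 100-1000 RFU were excluded. The Cy3-labelled switching-strand clusters, on a modified Illumina MiSeq flow-cell, were annealed to 100 nM quencher-labelled ATP aptamer and imaged in selection buffer, then after 15 min with 500 uM ATP at 22 °C, for five cycles with NaOH stripping and re-annealing between them.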
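Also: ATP exposure 15 min at 22 °C before imaging.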

Sequence | switch fluorescence ratio
CTGTGTACAC | 0.965
GGACCGGAGC | 1.85
TGCGTTAGAG | 0.979
AAAAGGAAGC | 0.977
CTGAGGATGG | 1.03
ACGGTTGTCA | 0.977
TGGACATTCG | 0.981
CGCGGGTGAC | 0.985
GCTGGACGGG | 0.996
TTCAGTTCTG | 0.981
AGGGGAAACT | 0.992
GTTAGTGCTG | 0.997
TAGGACGCCT | 1
TAGTGGCACC | 1
ATGGAGCAAA | 3.17
TACTACTGTG | 0.997
ACGCTATGCA | 1.11
CCTCAGGTAC | 2.86
GGCTGTTCGA | 0.995
ACTTAGTGGC | 1.06
ACAACAATTA | 1.02
AATGGGTGCT | 0.984
AGGATTCCTC | 1.07
CCTGAGCGTA | 1.15
CGTGACGAAC | 1.06
CCTTGATCCT | 1.07

Sequence | switch fluorescence ratio
TGCAGATTGA | 1.05
GTTCGAGTAT | 1.05
TAATTGGTC | 1.03
TGGTCTATTG | 1.02
GACTCACAGC | 1.17
GGTGTATTC | 0.986
CCTTGAGCTG | 1.59
ATCTGGGTA | 1
AGTGGGACAC | 0.954
TGCACAGCTA | 1.07
AAATGAGGAT | 1.01
GCCCCGCGTC | 1.85
GATTCGGTTA | 0.942
TACACGTCGT | 1.02
CGATGTATAG | 1.04
TCTAAGCATG | 1.03
CCACGTTGGG | 0.999
CAACGAAAAA | 1.03
CGGGCAGATT | 1.03
TGCCTGTGTT | 1.09
CCGAGCTAGT | 2.69
ACGTTCATGA | 1.06
TCTAGTTGCC | 0.97
CCACTTAGCG | 1.04
GTTTCACGAC | 1.03
AGTGCTACTT | 1.03

Sequence | switch fluorescence ratio
TAATTCGCTT | 1.02
GTCTTCTAAG | 0.963
GAACTTGGTG | 0.999
TCGGTGGGA | 0.954
GCGCATCGAT | 1.02
AACGGGGTAT | 1.06
TAGGGCCCGT | 1.03
GGTATAGTAA | 1.03
CGTGTCATTT | 0.975
TTTGTGTACT | 0.992
CGGCCGTCTG | 0.956
TAGCAACCA | 1
ATCATGTCGG | 0.993
ACACAATTTG | 0.995
TTCTGAGGGT | 0.92
TCTTAACAT | 1.04
TCCTTCTGGT | 1.03
CGCCATACAG | 1.46
GCTCGTCACG | 0.95
ACCTACGCGT | 1.59
TACACTACTT | 1.24
TGGGCTTGGC | 0.967
CTGTTGAAC | 1.03
GGTCCACTTG | 0.956
TATAAATACA | 1.01
ACGACAGCCT | 1.25

Sequence | switch fluorescence ratio
AAAGATTTAG | 0.981
ATATGAGATA | 0.974
CGTGAGACTG | 0.923
GGAGCAGCGG | 1.09
CTGAGGTC | 0.857
CATATCCTAT | 1.03
TGGATGCCAG | 0.993
CGAAGAGGGT | 1
TCGACCCTAT | 1.09
TTAGGGTTCG | 1.08
GGTTGTAGTG | 0.981
TGCCTCTTTC | 0.996
ACGAACGTCC | 1.28
ACCTAAGTTC | 1.09
AGCGGTGGCT | 0.97
CGTTTCCAGC | 1.07
AAAACGTAA | 1.09
GGCTATTCGC | 1
AAGGTGGTTA | 1.01
TGACTGGAGC | 1.02
TTGAGTACAG | 1.06
AGCGAACATA | 0.975
TTAGCCGACG | 1.04
GATAGGC | 0.978
ATTCGCGGCA | 1.05
TTAAACACCG | 1.1

Sequence | switch fluorescence ratio
GCTGACGTGC | 1.07
AGGTTGGCTG | 0.968
ACAACCCCC | 1.47
TTGAGTAGTC | 0.98
GGGCTAGCAT | 0.986
AAATAGAGTG | 0.978
CTTGGGCAGC | 1.02
ATCCTGGTAG | 0.984
TGCTGAATGC | 1.02
TCGGACAACG | 0.989
ATAAGATAGT | 0.988
TATTCCTCGG | 1.37
GGTTAGCCGT | 1.02
ATTGTTCTCT | 1.03
GGTGCGAGA | 1.03
GCTCTCACCA | 1.07
TAATTATCCC | 1.08
TGCTCGTTGC | 1.03
CACTTATCCT | 1.09
TAAGTGATAA | 1.01
TGATTTCTAG | 0.991
TCTTGAAGCC | 1.01
GACATGTAGC | 1
GAAGGGGCTT | 0.959
ATAGCCTCCC | 1.39
TGTTTCAGTC | 0.981

Sequence | switch fluorescence ratio
ACCAGCGCTA | 1.04
ATCATACGTC | 1.02
AGCAAATGCT | 1.26
ATATTGTAGG | 1.01
TGAATGGCTA | 0.975
TGTTTACTGT | 1.04
GTCGACCTCA | 1.01
GGTCCGTCTG | 1
TACGGGTCTC | 0.993
TCCAGACGCC | 1.65
TAGGCATATC | 4.11
ATCTTATTA | 0.999
AGCAAAAAAT | 1.17
GGGTCAATA | 1.07
TAGATGCGGA | 1.02
GGGGCGGGTC | 1.03
GCCGTAGTC | 0.986
GAGCTAGTGG | 1
CACGATCTCA | 1.01
CATATAATTA | 1.01
AGCGGACATT | 0.993
TGCAAGTAAA | 1.04
GAGATGGAAT | 1
